Reference: publication PMC6141180, “The TAB1-p38α complex aggravates myocardial injury and can be targeted by small molecules” (JCI Insight, 2018)

T1: TAB1 (residues 1–438) (mouse, UniProt Q8CF89 1-438)
T1 construct: mouse TAB1 residues 1-438; His6 tag and TEV cleavage site before it; also called native TAB1; source: E. coli Rosetta II (pETDuet-1), purified
T1 sequence (looked up): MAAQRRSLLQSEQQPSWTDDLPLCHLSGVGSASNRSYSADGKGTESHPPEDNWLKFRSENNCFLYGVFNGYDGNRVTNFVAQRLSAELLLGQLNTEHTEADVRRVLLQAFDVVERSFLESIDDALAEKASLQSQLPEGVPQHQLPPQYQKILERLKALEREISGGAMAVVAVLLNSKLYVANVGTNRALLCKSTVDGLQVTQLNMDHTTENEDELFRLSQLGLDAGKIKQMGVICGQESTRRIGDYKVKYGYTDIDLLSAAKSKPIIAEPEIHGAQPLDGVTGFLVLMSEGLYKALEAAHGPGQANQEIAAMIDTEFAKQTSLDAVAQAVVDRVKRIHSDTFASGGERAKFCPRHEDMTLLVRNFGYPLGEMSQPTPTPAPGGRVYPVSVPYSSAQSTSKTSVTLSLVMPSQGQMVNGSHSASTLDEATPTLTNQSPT

T2: TAB1 (residues 1–438) phosphorylated at Serine 423 (mouse, UniProt Q8CF89 1-438, phosphoserine at 423)
T2 construct: TAB1 residues 1-438 with phosphoserine at 423; purified by the same protocols as TAB1 and p38α; also called p^S423TAB1; pTAB1; source: C321(DE3)ΔserB E. coli (pCDF vector), grown with 2 mM O-phospho-L-Serine, purified
T2 sequence (looked up): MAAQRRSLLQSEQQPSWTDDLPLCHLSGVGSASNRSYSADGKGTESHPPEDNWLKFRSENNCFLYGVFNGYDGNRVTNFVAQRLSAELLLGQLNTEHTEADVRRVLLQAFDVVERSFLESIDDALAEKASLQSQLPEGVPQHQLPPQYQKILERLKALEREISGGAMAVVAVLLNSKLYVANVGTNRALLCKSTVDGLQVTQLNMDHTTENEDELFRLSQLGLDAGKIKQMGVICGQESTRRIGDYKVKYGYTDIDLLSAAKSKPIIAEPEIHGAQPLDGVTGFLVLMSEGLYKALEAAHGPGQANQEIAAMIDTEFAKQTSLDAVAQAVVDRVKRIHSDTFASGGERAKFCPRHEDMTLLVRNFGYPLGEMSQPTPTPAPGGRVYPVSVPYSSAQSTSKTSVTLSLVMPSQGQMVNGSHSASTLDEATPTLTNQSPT

B1: p38α (MAPK14), nonphosphorylated (enzyme)
chain: not shown
notes: mouse p38α (MAPK14); Also used as the target of the functional rows on co-expressed p38α (E. coli pETDuet-1 first cloning site; HEK293 plasmid not described); source: E. coli Rosetta II (pETDuet-1), purified
B2: dual (pThr180, pTyr182) phosphorylated p38α (enzyme)
chain: not shown
modifications: phosphothreonine at 180, phosphotyrosine at 182
notes: mouse p38α (MAPK14), phosphorylated on Thr180 and Tyr182; Stoichiometric phosphorylation confirmed by mass spectrometry; also called pp38α; active p38α; source: E. coli Rosetta II, purified

What was measured:
TAB1 (residues 1–438) = biological target: T1, TAB1 (residues 1–438); test: ITC; iTC200 microcalorimeter; T = 298 K; who was in the syringe is not told; settings: both partners purified
[1] = biological target: T2, TAB1 (residues 1–438) phosphorylated at …; test: as above; settings: both partners purified

Binder | binding result (TAB1 (residues 1–438)) | binding result [1]
B1 | binds | 
B2 | binds | binds
